According to the supplement of paper PMC8007513:
Structures can show the parent of a compound that is named as a salt. ± gives the standard error. About 75 (6%) of roughly 1,300 compounds showed an effect of 50% or more. The list shows a part of the results.

Tested on: Trichoderma virens ATCC 9645
Test: growth yield (OD600) relative to untreated control; higher = less growth inhibition
Details: compound concentration: 100 uM
How it was run: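 Trichoderma virens ATCC 9645 spores, from potato dextrose agar plates grown for 7 days, were brought to 15,000 spores ml^−1 in potato dextrose broth and dispensed as 100 μl aliquots into 96-well plates. Each aliquot received library compounds at 100 μM final, with or without a biocide at 200 ng ml^−1, before growth at 30 °C and OD600 readings on a BioTek EL800 at 40 h and 72 h. Growth is expressed relative to the control containing neither agent and represents means of duplicate screens.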

Row | Structure (SMILES) | growth yield (40 h) | growth yield (72 h)
1 | CC(=O)OCC(=O)[C@H]1CC[C@H]2[C@@H]3CC[C@H]4C[C@H](O)CC[C@]4(C)[C@H]3C(=O)C[C@]12C [Alfadolone acetate] | 95.5 ± 5.2% | 93.8 ± 3.8%
2 | CC(=O)NC1CCSC1=O (racemic) [N-Acetyl-DL-homocysteine Thiolactone] | 98.32 ± 0.79% | 95.1 ± 2.8%
3 | CC(Cc1ccccc1)NCCC(c1ccccc1)c1ccccc1 (stereo not given) [Prenylamine lactate] | 104 ± 2.1% | 113 ± 3.1%
4 | C[C@]12CC[C@H](O)C[C@H]1CC[C@@H]1[C@@H]2C[C@@H](O)[C@]2(C)[C@@H](C3=CC(=O)OC3)CC[C@]12O [Digoxigenin] | 99.6 ± 7.5% | 98.2 ± 5.5%
5 | Clc1ccc(C(OCCN2CCCCC2)c2ccccc2)cc1 (stereo not given) [Cloperastine hydrochloride] | 103 ± 8.3% | 106 ± 6.9%
6 | CN1CCN(C(=O)OC2c3nccnc3C(=O)N2c2ccc(Cl)cn2)CC1 (stereo not given) [Zopiclone] | 106.3 ± 0.79% | 106 ± 1.5%
7 | NC(=O)C[S+]([O-])C(c1ccccc1)c1ccccc1 (stereo not given) [Modafinil] | 102 ± 1.3% | 101 ± 1.7%
8 | Cc1cccc(C)c1NC1=NCCCS1 [Xylazine] | 108 ± 4.5% | 106 ± 3.4%
9 | COc1cc([C@@H]2c3cc4c(cc3[C@H](O)[C@H]3COC(=O)[C@H]23)OCO4)cc(OC)c1OC [Podophyllotoxin] | 98.5 ± 1.3% | 96.38 ± 0.1%
10 | CCC1(c2cccc(O)c2)CCCCN(C)C1 (stereo not given) [Meptazinol hydrochloride] | 101 ± 1.8% | 98.79 ± 0.84%
11 | C[C@@H]1CC[C@H]2[C@@H](C)C(=O)O[C@@H]3O[C@@]4(C)CC[C@@H]1[C@]32OO4 [Artemisinin] | 69.89 ± 0.64% | 82.4 ± 2.1%
12 | CCC(COC(=O)c1cc(OC)c(OC)c(OC)c1)(c1ccccc1)N(C)C (stereo not given) [Trimebutine] | 104 ± 3% | 101 ± 2.9%
13 | NCCc1c[nH]c2ccc(O)cc12 [Serotonin hydrochloride] | 112 ± 5.6% | 109 ± 4.2%
14 | CCN(C(C)=O)c1cccc(-c2ccnc3c(C#N)cnn23)c1 [Zaleplon] | 101 ± 1.4% | 102 ± 1.1%
15 | CO[C@]12C[C@@H](COC(=O)c3cncc(Br)c3)CN(C)[C@@H]1Cc1cn(C)c3cccc2c13 [Nicergoline] | 99.1 ± 2.2% | 103 ± 3.2%
16 | CC(=O)OCC1=C(C(=O)O)N2C(=O)[C@@H](N)[C@H]2SC1 [Cephalosporanic acid, 7-amino] | 105 ± 5.7% | 107 ± 6.2%
17 | C[N+]12CCC(CC1)C(OC(=O)C(O)(c1ccccc1)c1ccccc1)C2 (stereo not given) [Clidinium bromide] | 92.4 ± 3.5% | 89.9 ± 3.7%
18 | C[C@]12Cc3c[nH]nc3C[C@@H]1CC[C@@H]1[C@@H]2CC[C@@]2(C)[C@H]1CC[C@]2(C)O [Stanozolol] | 88.3 ± 14% | 93.7 ± 10%
19 | CC(C)(C)NCC(O)c1ccccc1Cl (stereo not given) [Tulobuterol] | 108.2 ± 0.48% | 103.4 ± 0.21%
20 | CC(C)C[C@H](CN)CC(=O)O [Pregabalin] | 101.5 ± 0.16% | 100.5 ± 0.63%
